Reference: paper PMC5720820
These are yes or no findings as the source states them, for the method shown. In cells and extracts the contact can be indirect. Some binding calls cover weakened binding; strength is not graded here.

Protein sequences, listed by entry. Tags and fused reporters are not part of them. Residues count along the entry.
UniProt P97772, residues 21-1199: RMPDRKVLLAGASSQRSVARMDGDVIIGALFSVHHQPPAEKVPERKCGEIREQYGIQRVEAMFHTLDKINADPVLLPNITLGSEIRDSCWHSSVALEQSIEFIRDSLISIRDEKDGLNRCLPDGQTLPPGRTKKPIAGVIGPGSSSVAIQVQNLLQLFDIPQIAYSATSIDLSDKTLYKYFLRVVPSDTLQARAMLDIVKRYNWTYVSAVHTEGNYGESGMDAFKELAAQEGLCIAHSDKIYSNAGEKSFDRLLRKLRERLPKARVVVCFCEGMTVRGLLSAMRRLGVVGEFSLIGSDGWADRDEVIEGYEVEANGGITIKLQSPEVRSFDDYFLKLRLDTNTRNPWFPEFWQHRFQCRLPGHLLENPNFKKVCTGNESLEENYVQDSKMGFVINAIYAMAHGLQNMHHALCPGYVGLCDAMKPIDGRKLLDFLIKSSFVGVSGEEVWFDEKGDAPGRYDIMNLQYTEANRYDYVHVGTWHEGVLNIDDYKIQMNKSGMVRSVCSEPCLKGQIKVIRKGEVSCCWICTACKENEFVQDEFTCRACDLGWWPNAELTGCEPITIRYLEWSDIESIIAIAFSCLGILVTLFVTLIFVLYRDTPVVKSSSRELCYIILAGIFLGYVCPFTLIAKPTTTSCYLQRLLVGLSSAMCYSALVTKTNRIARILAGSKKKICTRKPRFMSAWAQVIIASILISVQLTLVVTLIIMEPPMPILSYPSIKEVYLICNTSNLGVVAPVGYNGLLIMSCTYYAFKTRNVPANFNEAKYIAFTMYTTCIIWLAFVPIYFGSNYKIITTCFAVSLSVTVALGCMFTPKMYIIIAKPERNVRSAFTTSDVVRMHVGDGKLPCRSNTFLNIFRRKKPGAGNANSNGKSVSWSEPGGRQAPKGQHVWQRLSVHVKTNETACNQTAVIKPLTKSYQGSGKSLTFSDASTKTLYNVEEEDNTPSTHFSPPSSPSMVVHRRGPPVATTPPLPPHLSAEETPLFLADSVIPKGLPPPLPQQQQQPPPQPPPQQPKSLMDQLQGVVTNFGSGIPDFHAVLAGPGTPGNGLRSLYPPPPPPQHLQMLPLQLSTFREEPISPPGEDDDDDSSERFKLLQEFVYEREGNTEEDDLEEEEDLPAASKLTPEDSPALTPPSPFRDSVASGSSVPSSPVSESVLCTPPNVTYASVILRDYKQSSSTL
UniProt Q3UVX5, residues 19-1203: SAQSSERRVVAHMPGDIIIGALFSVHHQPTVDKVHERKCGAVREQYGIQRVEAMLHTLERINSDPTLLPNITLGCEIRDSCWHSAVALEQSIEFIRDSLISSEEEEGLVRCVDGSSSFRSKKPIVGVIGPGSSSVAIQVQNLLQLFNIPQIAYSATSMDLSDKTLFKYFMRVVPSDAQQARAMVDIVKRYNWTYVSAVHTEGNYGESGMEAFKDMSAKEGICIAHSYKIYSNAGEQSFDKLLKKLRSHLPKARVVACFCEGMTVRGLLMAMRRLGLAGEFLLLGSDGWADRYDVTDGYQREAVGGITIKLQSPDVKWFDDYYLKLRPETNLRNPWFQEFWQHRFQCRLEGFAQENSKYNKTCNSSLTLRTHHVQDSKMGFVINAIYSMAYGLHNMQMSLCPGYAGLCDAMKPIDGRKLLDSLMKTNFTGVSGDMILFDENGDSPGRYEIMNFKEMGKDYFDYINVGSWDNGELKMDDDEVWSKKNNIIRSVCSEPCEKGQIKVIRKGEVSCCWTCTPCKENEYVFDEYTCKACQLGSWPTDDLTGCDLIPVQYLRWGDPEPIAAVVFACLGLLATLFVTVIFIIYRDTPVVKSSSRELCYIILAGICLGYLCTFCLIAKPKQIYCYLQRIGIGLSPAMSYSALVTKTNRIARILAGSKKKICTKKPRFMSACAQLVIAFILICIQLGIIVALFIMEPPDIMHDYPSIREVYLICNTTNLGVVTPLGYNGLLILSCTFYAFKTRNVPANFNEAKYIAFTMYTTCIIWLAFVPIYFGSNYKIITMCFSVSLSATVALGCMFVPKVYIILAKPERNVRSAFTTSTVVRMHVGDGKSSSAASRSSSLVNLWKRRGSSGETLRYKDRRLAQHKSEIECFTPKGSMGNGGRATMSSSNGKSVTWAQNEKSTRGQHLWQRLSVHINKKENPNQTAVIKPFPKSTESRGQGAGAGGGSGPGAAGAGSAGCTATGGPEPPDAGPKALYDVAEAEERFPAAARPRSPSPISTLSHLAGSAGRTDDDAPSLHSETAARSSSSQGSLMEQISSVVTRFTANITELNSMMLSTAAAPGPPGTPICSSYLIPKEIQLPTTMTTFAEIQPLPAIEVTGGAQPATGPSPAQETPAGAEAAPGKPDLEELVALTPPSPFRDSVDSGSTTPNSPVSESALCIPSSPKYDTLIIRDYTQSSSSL

How the values were obtained:
[1] = target: metabotropic glutamate receptor 1 (mGluR1) (mouse (endogenous in brain)) (UniProt P97772); assay: co-IP
[2] = target: metabotropic glutamate receptor 5 (mGluR5) (mouse (endogenous in brain)) (UniProt Q3UVX5); assay: co-IP

With “PrP^C overexpressed in tga20 mice (from UniProt P04925 23-230)” the binding [1] was “binds” and the binding [2] was “binds”.
